Over roughly 33,000 sequences, “E-score (-0.5 to 0.5)” has its median near -0.021; the highest 2% begin near 0.32. Some of the results follow.
molecular target: T1, Zap1 (UniProt P47043); assay: PBM E-score (8-mer binding enrichment) (E-score (-0.5 to 0.5)); higher = stronger / more preferred TF binding; most listed sequences are background and not binding sites; conditions: protein concentration: 200 nM; construct: GST-full length
T1 sequence: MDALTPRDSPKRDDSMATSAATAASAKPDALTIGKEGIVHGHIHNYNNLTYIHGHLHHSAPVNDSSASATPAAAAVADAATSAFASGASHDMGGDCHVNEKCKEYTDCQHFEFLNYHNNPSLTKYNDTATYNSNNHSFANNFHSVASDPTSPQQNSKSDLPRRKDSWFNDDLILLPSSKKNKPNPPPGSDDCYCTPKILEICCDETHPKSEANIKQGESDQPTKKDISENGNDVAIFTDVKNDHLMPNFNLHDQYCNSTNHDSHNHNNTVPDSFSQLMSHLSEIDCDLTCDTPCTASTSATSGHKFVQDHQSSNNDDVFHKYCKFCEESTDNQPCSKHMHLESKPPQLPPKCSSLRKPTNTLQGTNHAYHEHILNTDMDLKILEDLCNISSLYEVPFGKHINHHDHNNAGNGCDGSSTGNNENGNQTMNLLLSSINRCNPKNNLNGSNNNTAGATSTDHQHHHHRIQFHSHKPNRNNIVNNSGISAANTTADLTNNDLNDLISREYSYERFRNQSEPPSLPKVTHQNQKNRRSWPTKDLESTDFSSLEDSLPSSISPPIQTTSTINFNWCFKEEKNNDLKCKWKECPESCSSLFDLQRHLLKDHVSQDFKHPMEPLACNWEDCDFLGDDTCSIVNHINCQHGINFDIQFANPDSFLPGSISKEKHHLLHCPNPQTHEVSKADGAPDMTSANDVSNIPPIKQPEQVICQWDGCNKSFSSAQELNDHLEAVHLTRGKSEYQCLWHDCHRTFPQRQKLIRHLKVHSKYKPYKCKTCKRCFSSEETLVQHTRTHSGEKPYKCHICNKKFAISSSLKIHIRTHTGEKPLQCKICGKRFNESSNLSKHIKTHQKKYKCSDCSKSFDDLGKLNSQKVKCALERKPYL
In short: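 GST-tagged yeast TFs (full-length or DNA-binding domain) were made by PURExpress in vitro transcription/translation and applied at about 100-200 nM to universal all-10-mer Agilent arrays. The arrays were made double-stranded by primer extension, on fresh or once-stripped slides. Bound protein was detected with fluorescent anti-GST, and scans were normalised with masliner. Each ungapped eight-base word, pooled with its reverse complement, received an E-score (modified Wilcoxon-Mann-Whitney statistic) from the Universal PBM Analysis Suite.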

First: ACCTCTTG
Second: TAGCACGA
The “PBM E-score” value of the first is higher: 0.29 for the first, -0.0403 for the second.

Compared with AACCCGAA, AGGCTCAG is lower in “PBM E-score” value: 0.327 for the first, -0.176 for the second.

Compared with CCTAGGTA, GGCGGAAA is lower in “PBM E-score” value: 0.0255 for the first, -0.00849 for the second.

Going from ATACCCCC to CGGGAAAC, the “PBM E-score” value falls from 0.221 to 0.103.

Compared with ACTCTGAG, CCCCTTTA is lower in “PBM E-score” value: 0.0108 for the first, -0.00689 for the second.

Going from ACCATGGT to CGGTCGTC, the “PBM E-score” value falls from 0.0512 to -0.0244.

Going from CACGGGAA to CCCCCACC, the “PBM E-score” value falls from -0.237 to -0.378.

Going from ATACTCTC to GAGAACCA, the “PBM E-score” value rises from -0.15 to 0.187.

First: CCCAGACG
Second: AGGGCACT
The “PBM E-score” value of the first is higher: -0.166 for the first, -0.219 for the second.

Compared with GCTACGCC, GAGGGAAA is lower in “PBM E-score” value: -0.238 for the first, -0.239 for the second.

Going from ATCTCTTG to CTCCCATA, the “PBM E-score” value falls from -0.112 to -0.177.

Compared with ATTGCAGA, CCGTAACC is higher in “PBM E-score” value: 0.0451 for the first, 0.471 for the second.

First: CACCCTGG
Second: ACAGCCAC
The “PBM E-score” value of the first is higher: 0.169 for the first, 0.0177 for the second.

First: CCTCATGC
Second: AAATTCAT
The “PBM E-score” value of the first is lower: -0.135 for the first, 0.107 for the second.

Going from ATCGTCCG to ACTTCATG, the “PBM E-score” value rises from -0.146 to -0.0431.

Compared with CACCCGTA, AGAGGAGC is lower in “PBM E-score” value: 0.117 for the first, -0.227 for the second.

Going from CCGCGAAC to AACAGTTA, the “PBM E-score” value falls from 0.163 to 0.0629.

Compared with AATCCATG, ACGCGCCG is lower in “PBM E-score” value: -0.135 for the first, -0.193 for the second.

Compared with TAGTCCGA, GCTCAGCA is higher in “PBM E-score” value: -0.0595 for the first, 0.0141 for the second.

First: GACCAAAC
Second: AAGTATTA
The “PBM E-score” value of the first is lower: 0.115 for the first, 0.138 for the second.

Going from ACACCCGC to AATAGGTG, the “PBM E-score” value rises from 0.0357 to 0.045.

First: ACCCCTAC
Second: CTTGGACA
The “PBM E-score” value of the first is higher: 0.293 for the first, -0.0713 for the second.

Going from AAAAACAT to CTTACACC, the “PBM E-score” value falls from 0.0245 to -0.142.

First: AGCCCTAT
Second: GAAACTTA
The “PBM E-score” value of the first is lower: -0.0625 for the first, 0.14 for the second.

Compared with CGTAGAAA, AGGAAGCA is lower in “PBM E-score” value: 0.0715 for the first, -0.253 for the second.

Going from AGATTCAT to AGTTTTTA, the “PBM E-score” value rises from -0.354 to 0.0815.

Compared with TGAACCCA, CAGTCGCC is lower in “PBM E-score” value: 0.242 for the first, -0.186 for the second.

Compared with CCTGAGGA, CAAGTGGA is lower in “PBM E-score” value: -0.0361 for the first, -0.188 for the second.

First: AAACTTTA
Second: CACAACAA
The “PBM E-score” value of the first is higher: 0.149 for the first, 0.0567 for the second.

Compared with AATCTGGT, CGTACTAC is lower in “PBM E-score” value: 0.182 for the first, 0.0132 for the second.

Going from AGCCGGAT to ATAGGCTG, the “PBM E-score” value falls from -0.082 to -0.125.

Going from AGCCTTGC to ACTATGTC, the “PBM E-score” value rises from -0.257 to -0.105.

Going from AGTCAGGG to GCTTCGAC, the “PBM E-score” value falls from -0.15 to -0.216.

Compared with ACGTAGGG, CGAGCAGC is higher in “PBM E-score” value: -0.289 for the first, 0.029 for the second.

Going from GAGGATCA to GTGGTTGA, the “PBM E-score” value falls from 0.112 to 0.0163.

Going from TGCGGCCA to AGATGGAA, the “PBM E-score” value falls from 0.138 to -0.152.

First: AATTTAGT
Second: AAGGCGTA
The “PBM E-score” value of the first is higher: 0.161 for the first, -0.173 for the second.

First: CGGTTCGC
Second: CCAAATGG
The “PBM E-score” value of the first is lower: -0.128 for the first, 0.122 for the second.

Compared with TCGGTGAA, AAGCTTAC is higher in “PBM E-score” value: -0.0901 for the first, 0.203 for the second.

Going from TAACATGA to AAAACCTC, the “PBM E-score” value rises from -0.0126 to 0.291.

Compared with GAGGGAGA, CGCCCTGC is higher in “PBM E-score” value: -0.233 for the first, -0.0847 for the second.

Compared with ATTAAGCA, CAGTGCTC is lower in “PBM E-score” value: -0.0391 for the first, -0.041 for the second.

First: TGAGGCCA
Second: CGAGGTTA
The “PBM E-score” value of the first is lower: 0.0976 for the first, 0.455 for the second.

First: CCTTTTTA
Second: ACTGTGCA
The “PBM E-score” value of the first is higher: 0.205 for the first, -0.096 for the second.

Compared with CATTGGAC, AGCCTACG is lower in “PBM E-score” value: 0.0218 for the first, 0.0114 for the second.

Going from CGTAAATC to AAGCGTAC, the “PBM E-score” value falls from 0.146 to -0.161.

Compared with ATAGGATG, AATCTATA is higher in “PBM E-score” value: -0.191 for the first, 0.17 for the second.

First: CGGGGTGA
Second: AGCGAGGC
The “PBM E-score” value of the first is higher: 0.316 for the first, -0.266 for the second.

First: AGTCCGCC
Second: CACGTACA
The “PBM E-score” value of the first is lower: -0.122 for the first, -0.0299 for the second.

Compared with ATAGTAAG, CAGCTTCG is lower in “PBM E-score” value: -0.0126 for the first, -0.117 for the second.

Going from GCGAGTTA to GACTTCGA, the “PBM E-score” value falls from 0.0927 to -0.149.

First: CGCAACCG
Second: GATTTAGA
The “PBM E-score” value of the first is higher: 0.281 for the first, 0.0863 for the second.

Going from CGTTTTAG to GGACCACA, the “PBM E-score” value rises from 0.00411 to 0.101.

Going from AAAGTGTT to GCTCAGGA, the “PBM E-score” value falls from 0.0802 to -0.169.

Going from ACGAAGTA to ACTCGGGG, the “PBM E-score” value rises from -0.344 to -0.179.

Compared with CGGCAAAC, ACATCGCT is lower in “PBM E-score” value: 0.00436 for the first, -0.0744 for the second.

Compared with GGACTGTA, AGGTTCCA is higher in “PBM E-score” value: -0.0595 for the first, 0.154 for the second.

First: AATGCGGT
Second: CCTCCAGA
The “PBM E-score” value of the first is lower: 0.125 for the first, 0.161 for the second.

Compared with AGGCAGAT, TAATTAAA is higher in “PBM E-score” value: -0.158 for the first, 0.0873 for the second.

Compared with GGAGTCCA, ATCATTGG is higher in “PBM E-score” value: -0.0805 for the first, -0.0596 for the second.

Going from CATCCCTC to TAAATGCA, the “PBM E-score” value rises from -0.0744 to 0.176.

Going from AAGAGAAG to AGCGTTGC, the “PBM E-score” value falls from -0.0962 to -0.207.

Going from TAATCGCA to AGTCAGAG, the “PBM E-score” value falls from 0.113 to -0.208.

First: AGTGTTGC
Second: CAACGGCG
The “PBM E-score” value of the first is higher: -0.0481 for the first, -0.187 for the second.

Compared with ACTCCGCC, ACTCACCC is higher in “PBM E-score” value: -0.282 for the first, -0.0932 for the second.

Going from TAGAACGA to AGGTTCGC, the “PBM E-score” value falls from 0.00851 to -0.211.

First: AATATGTA
Second: ACGACAGG
The “PBM E-score” value of the first is higher: 0.154 for the first, -0.00506 for the second.

Compared with TGAACGAA, CAAGTGAA is higher in “PBM E-score” value: -0.0226 for the first, 0.102 for the second.

First: ATACACCC
Second: GATTGCAA
The “PBM E-score” value of the first is higher: 0.154 for the first, 0.0195 for the second.

First: ACAGTAGC
Second: AGATGCGC
The “PBM E-score” value of the first is higher: -0.155 for the first, -0.266 for the second.

Compared with CTGAGAGC, AGAGGTCC is higher in “PBM E-score” value: -0.316 for the first, 0.201 for the second.

Compared with CGAACTAC, ACTATAAC is higher in “PBM E-score” value: -0.00887 for the first, 0.21 for the second.

Going from GCCGACGA to ACGTAGAC, the “PBM E-score” value falls from -0.0808 to -0.223.

Going from CGATTCGC to CCGCATAA, the “PBM E-score” value rises from -0.0502 to 0.212.

Going from CCAAGAAG to AAATCTTA, the “PBM E-score” value rises from 0.0253 to 0.107.

Compared with CTTTCGTC, CGGCACTA is lower in “PBM E-score” value: -0.0866 for the first, -0.15 for the second.

Compared with ACTATTCG, CTGACATA is lower in “PBM E-score” value: 0.00801 for the first, -0.067 for the second.

Going from ACCGAGCC to TACTAGGA, the “PBM E-score” value rises from -0.278 to 0.051.

Compared with CCAATCGG, AGGACACT is higher in “PBM E-score” value: -0.148 for the first, -0.0837 for the second.

Going from AGAAAAGC to GGCGCACA, the “PBM E-score” value falls from -0.0239 to -0.287.

Compared with GACGAGAA, TAATATCA is higher in “PBM E-score” value: -0.00906 for the first, 0.0712 for the second.

Compared with CGTAAAGC, TTGGGAAA is higher in “PBM E-score” value: -0.225 for the first, 0.163 for the second.

First: CTCATCCA
Second: ATCTTACA
The “PBM E-score” value of the first is lower: -0.0641 for the first, -0.00376 for the second.

First: CCCGGTAG
Second: GTGCCACA
The “PBM E-score” value of the first is higher: 0.0897 for the first, -0.29 for the second.

Going from AAAGGTCA to ATGTTGCA, the “PBM E-score” value falls from 0.449 to -0.121.

First: GGGACGAC
Second: TACCATAA
The “PBM E-score” value of the first is lower: -0.145 for the first, 0.367 for the second.

— the supplement of paper PMC3334620
